Part of at least one peptide drawing is inferred or uncertain, most often the ends. Bridge positions count the residues as written; N and C are the ends. Ends that are not written are not given here. Peptide text beside a SMILES is read from it. * marks the point of attachment. Biotin = O=C1N[C@H]2[C@H](CS[C@H]2CCCCC(=O)*)N1
Key:
[1] = direct microprecipitin assay (precipitating/binding activity); design: species or system B. Pertussis; settings: result in words
[2] = Limulus (LAL) test, inhibition of LPS-induced gelation; type: biochemical, B. Pertussis; settings: for inhibition of the toxic activity of LPS in the LAL assay: result in words
From the text: As a consequence of this high-affinity binding to the Lipid A moiety of endotoxins, most of the synthetic peptide analogs have shown the ability to detoxify endotoxins as evidenced by in vitro as well as in vivo analysis. The in vitro test used, as measure of detoxification, the inhibition of the enzymatic cascade leading to the coagulation of the Lymulus lysate (LAL test) by endotoxin. The LAL test is recognized as the most sensitive and predictive test for the toxic and pyrogenic activity of LPS, since pyrogenicity in vivo is related to the release of the endogenous immune modulators Interleukin-1 (IL-l) and alfa-Tumor necrosis factor (α-TNF), the mediators responsible for the fatalities associated to septic shock. As an in vivo test confirming detoxification of LPS, was then used the Rabbit pyrogen test performed according to the United States Pharmacopeia XXI.
The results obtained by the Limulus (LAL) test, shown in Table V, support the data obtained by measuring the Affinity of the peptides of the invention for the Lipid A moiety of LPS in that they were substantially equivalent to Polymyxin "B" in the inhibition of LPS activity on Limulus. […] Peptide I was, in fact, the one presenting the non complete structure needed for the mimick of Polymyxin "B" as the synthetic peptide analogs II, IV, VI and VII have clearly shown in the previous Table IV. It is important to note that the LAL test is accepted by the most important institutions in the Public Health field (Word Health Organization, United States Food and Drug Administration, etc.) as a predictive test for absence of pyrogenicity in injectable material and it can be used to replace the in vivo test of pyrogenicity in rabbits.
case (LPS of B. Pertussis) to 0.4 ng/ml of LPS. The complexes were allowe
to form at 37° C. for 30 minutes before to be processed for
analysis after dilution 1/100 with saline.
**Values are representative of a minimum of three different analysis.

[3] = stoichiometry of the complexes with LPS by amino acid analysis; type: binding; settings: 10 μg B. Pertussis LPS (2.64 nmoles Lipid A) + 10 μg peptide; for Amount of peptide in the complex: average of two experiments
Description: Quantitation of the amount of precipitated peptides present in the complexes with PLS of B. pertussis has been done by amino acid analysis after acid hydrolysis (by 6 M HCl) of the complexes recovered by centrifugation at 3,000 rpm×15 minutes. In Table III, the stoichiometry of some complexes is reported as calculated by the ratio (on molar basis) between the amount of each peptide and the amount of Lipid A present in the structure of LPS used in the experiments:
*Complexes formed between 10 μg of B. Pertussis LPS (equivalent to 4.5
μg of Lipid A of 2.64 nmoles) and 10 μg of peptide (twice the amoun
corresponding to the saturation point found for Polymyxin "B" in the
**Values represent the average of two separate experiments of amino acid
analysis after acid hydrolysis of the recovered complexes.

[4] = direct competition with Polymyxin "B" (Affinity constant, Selectivity); type: binding, B. pertussis; settings: for AFFINITY (Ka): for Lipid A of LPSbp; for SELECTIVITY (KaANA /KaPCP): ratio of Ka of peptide to Ka of Polymyxin "B" for Lipid A
From the text: To further characterize the binding activity of the synthetic peptides for Lipid A of endotoxin, experiments of direct competition with Polymyxin "B" have been set-up in order to evaluate the Affinity constant value of Polymyxin "B" for the toxic moiety of endotoxin and ultimately to calculate the Selectivity of the synthetic peptide analogs (ratio on molar basis, between the affinity constant value of a given peptide and that of Polymyxin "B" for Lipid A).

Salmonella Typhi = assay: antibiotic activity, zone of inhibition on BHI plates; type: cell-based, S. typhi; settings: 18 hours
Description: (§1) The following experiments compared the antibiotic activity of Polymyxin "B" with various peptides of the invention.
(§2) The tests were performed on BHI plates with liquid cultures of the test organism to give a lawn. Each peptide was diluted in water and placed on sterile Wathmam 3M disks on the surface of the plate. The plates were dried and incubated at 37° C. The zone of inhibition was measured after 18 hours: […]

Haemophilus influenzae = assay: as above; type: cell-based, H. influenzas; settings: 18 hours
Description: as §1, §2

Vibrio cholerae = assay: as above; type: cell-based, V. choleras; settings: 18 hours
Description: as §1, §2

[5] = prevention of endotoxin-induced death in CD1 mice sensitized with Actinomycin D; type: in vivo, mice (Strain CD1); settings: 0.1 mg/mouse i.v., 1 μg endotoxin i.p.; for Mice surviving: 20 mice per group
Description: Prevention of endotoxin-induced death in mice, has been achieved by intravenous injection of the peptides of the invention. For this experiment, a strain of mice highly sensitive to the lethal activity of bacterial endotoxin has been used. Mice sensitized with Actinomycin D (Strain CD1) show a high sensitivity to extremely low doses of endotoxin. A dose as low as 1 μg of endotoxin per mouse (about 40 μg/kg of body weight) is able to completely kill a population of mice within 24-48 hours.
Groups of 20 mice CD1 have been treated intravenously with the peptides of the invention, with a single dose of 0.1 mg peptide, solubilized in sterile saline, per mouse. Thirty minutes later, mice were challenged by intraperitoneal injection of 1 μg of endotoxin purified from E. Coli strain 055-B5. Surviving mice were recorded every 24 hours during a seven days-period of observation. […] Negative controls received an intravenous injection of saline.
There were 20 mice per group. Mice surviving at each of the seven 24 hours observation periods are listed. The % survival appears in parenthesis. P expresses the level of statistical significance calculated by "t-Test" for each molecule compared to the treatment with saline, considering the total survival rate in each group.

Avidin = Avidin (Gallus gallus, UniProt P02701); assay: solid-phase DOT-BLOT, inhibition of the reaction between peroxidase-labeled Biotin and Avidin; type: binding; settings: 1 nmol/ml, compared with free Biotin
Chain of Avidin (P02701 25-152, species assumed): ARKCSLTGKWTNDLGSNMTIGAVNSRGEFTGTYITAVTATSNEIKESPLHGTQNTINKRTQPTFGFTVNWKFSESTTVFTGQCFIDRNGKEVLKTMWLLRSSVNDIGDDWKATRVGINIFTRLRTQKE

## EYVEYVEYV [Glu-Tyr-Val-Glu-Tyr-Val-Glu-Tyr-Val, reference compound]
[1]
  binding activity for Lipid A/LPS: neither binding activity for Lipid A/LPS
[2]
  inhibition of the toxic activity of LPS in the LAL assay: nor inhibition of the toxic activity of LPS in the LAL assay

## IKFLKFLKFLK [Peptide VIII]
[3]
  Ratio peptide/LipA: 1.46 mol/mol
  Amount of peptide in the complex: 3.86 nmol
[4]
  AFFINITY (Ka): 1.29e+07 L/mol
  SELECTIVITY (KaANA /KaPCP): 1.12

## RYVRYVRYV [Peptide X]
[4]
  AFFINITY (Ka): 2.7e+06 L/mol
  SELECTIVITY (KaANA /KaPCP): 0.24
[2]; LPS/Pept (w/w) 20
  LAL TEST: NEGATIVE

## CC(C)C[C@@H]1NC(=O)[C@H](CCCCN)NC(=O)[C@H](CCCCN)NC(=O)[C@@H](N)CSSC[C@@H](C(=O)N[C@@H](CCCCN)C(=O)N[C@H](C(=O)N[C@@H](CCCCN)C(=O)O)[C@@H](C)O)NC(=O)[C@H](CCCCN)NC(=O)[C@H](Cc2ccccc2)NC1=O [Peptide IV] (H-CKKLFKCKTK-OH; disulfide 1-7)
[3]
  Ratio peptide/LipA: 1.34 mol/mol
  Amount of peptide in the complex: 3.55 nmol
[4]
  AFFINITY (Ka): 4.9e+06 L/mol
  SELECTIVITY (KaANA /KaPCP): 0.43
[2]; LPS/Pept (w/w) 1, LPS 0.1 μg
  LAL TEST: NEGATIVE

## KFLKKT [Peptide III]
[1]
  binding activity for Lipid A/LPS: not able to efficiently bind and detoxify LPS
[2]; LPS/Pept (w/w) 1000, LPS 0.1 μg
  LAL TEST: POSITIVE
[2]
  inhibition of the toxic activity of LPS in the LAL assay: not able to efficiently bind and detoxify LPS

## CC[C@H](C)[C@H](N)C(=O)N[C@@H](CCCCN)C(=O)N[C@H](C(=O)N[C@@H](CCCCN)C(=O)N[C@H]1CSSC[C@@H](C(=O)O)NC(=O)[C@H](CCCCN)NC(=O)[C@H](CCCCN)NC(=O)[C@H](CC(C)C)NC(=O)[C@H](Cc2ccccc2)NC(=O)[C@H](CCCCN)NC1=O)[C@@H](C)O [Peptide VI] (H-IKTKCKFLKKC-OH; disulfide 5-11)
[3]
  Ratio peptide/LipA: 1.18 mol/mol
  Amount of peptide in the complex: 3.12 nmol
[4]
  Ka for Lipid A of bacterial endotoxins: 0.3×10^7
  AFFINITY (Ka): 2.9e+06 L/mol
  SELECTIVITY (KaANA /KaPCP): 0.25
[2]; LPS/Pept (w/w) 2, LPS 0.1 μg
  LAL TEST: NEGATIVE
Salmonella Typhi; 0.008 μg/ml
  Zone (mm) of inhibition S. typhi: 0 mm
Salmonella Typhi; 0.04 μg/ml
  Zone (mm) of inhibition S. typhi: 0 mm
Salmonella Typhi; 0.2 μg/ml
  Zone (mm) of inhibition S. typhi: 0 mm
Salmonella Typhi; 1.0 μg/ml
  Zone (mm) of inhibition S. typhi: 0 mm
Haemophilus influenzae; 0.008 μg/ml
  Zone (mm) of inhibition H. influenzas: 0 mm
Haemophilus influenzae; 0.04 μg/ml
  Zone (mm) of inhibition H. influenzas: 0 mm
Haemophilus influenzae; 0.2 μg/ml
  Zone (mm) of inhibition H. influenzas: 0 mm
Haemophilus influenzae; 1.0 μg/ml
  Zone (mm) of inhibition H. influenzas: 0 mm
Vibrio cholerae; 0.008 μg/ml
  Zone (mm) of inhibition V. choleras: 0 mm
Vibrio cholerae; 0.04 μg/ml
  Zone (mm) of inhibition V. choleras: 0 mm
Vibrio cholerae; 0.2 μg/ml
  Zone (mm) of inhibition V. choleras: 0 mm
Vibrio cholerae; 1.0 μg/ml
  Zone (mm) of inhibition V. choleras: 0 mm
[5]; 24 hs
  % survival: 25%
  Mice surviving: 5
[5]; 48 hs
  % survival: 25%
  Mice surviving: 5
[5]; 72 hs
  % survival: 25%
  Mice surviving: 5
[5]; 96 hs
  % survival: 25%
  Mice surviving: 5
[5]; 120 hs
  % survival: 25%
  Mice surviving: 5
[5]; 144 hs
  % survival: 25%
  Mice surviving: 5
[5]; 168 hs
  % survival: 25%
  Mice surviving: 5

## KFLKFLK [Peptide IX]
[4]
  AFFINITY (Ka): 1e+06 L/mol
  SELECTIVITY (KaANA /KaPCP): 0.10
[2]; LPS/Pept (w/w) 100
  LAL TEST: NEGATIVE

## CC[C@H](C)[C@H](NC(=O)CCCC[C@@H]1SC[C@@H]2NC(=O)N[C@@H]21)C(=O)N[C@@H](CCCCN)C(=O)N[C@H](C(=O)N[C@@H](CCCCN)C(=O)N[C@H]1CSSC[C@@H](C(=O)O)NC(=O)[C@H](CCCCN)NC(=O)[C@H](CCCCN)NC(=O)[C@H](CC(C)C)NC(=O)[C@H](Cc2ccccc2)NC(=O)[C@H](CCCCN)NC1=O)[C@@H](C)O [labeled Peptide VI] (Biotin-IKTKCKFLKKC-OH; disulfide 5-11)
[4]; Biotin-labeled peptide, not significantly different from the unlabeled value
  Affinity for Lipid A/LPS (Ka): ~3e+06 mol/L
Avidin
  Affinity of the peptide bound-Biotin for Avidin: not significantly different from the one detected for free Biotin

## IKTKKFLKKT [Peptide VII]
[3]
  Ratio peptide/LipA: 1.13 mol/mol
  Amount of peptide in the complex: 3.00 nmol
[4]
  AFFINITY (Ka): 1.9e+06 L/mol
  SELECTIVITY (KaANA /KaPCP): 0.17
[2]; LPS/Pept (w/w) 2, LPS 0.1 μg
  LAL TEST: NEGATIVE
